# Measured values from the supplement of paper PMC3334620.
# In all, about 33,000 sequences were measured (“E-score (-0.5 to 0.5)”: median about -0.012, highest 2% from about 0.29 on). The list shows a part of the results.
# Target: T1, Ybr033w (UniProt P38073)
# T1 sequence: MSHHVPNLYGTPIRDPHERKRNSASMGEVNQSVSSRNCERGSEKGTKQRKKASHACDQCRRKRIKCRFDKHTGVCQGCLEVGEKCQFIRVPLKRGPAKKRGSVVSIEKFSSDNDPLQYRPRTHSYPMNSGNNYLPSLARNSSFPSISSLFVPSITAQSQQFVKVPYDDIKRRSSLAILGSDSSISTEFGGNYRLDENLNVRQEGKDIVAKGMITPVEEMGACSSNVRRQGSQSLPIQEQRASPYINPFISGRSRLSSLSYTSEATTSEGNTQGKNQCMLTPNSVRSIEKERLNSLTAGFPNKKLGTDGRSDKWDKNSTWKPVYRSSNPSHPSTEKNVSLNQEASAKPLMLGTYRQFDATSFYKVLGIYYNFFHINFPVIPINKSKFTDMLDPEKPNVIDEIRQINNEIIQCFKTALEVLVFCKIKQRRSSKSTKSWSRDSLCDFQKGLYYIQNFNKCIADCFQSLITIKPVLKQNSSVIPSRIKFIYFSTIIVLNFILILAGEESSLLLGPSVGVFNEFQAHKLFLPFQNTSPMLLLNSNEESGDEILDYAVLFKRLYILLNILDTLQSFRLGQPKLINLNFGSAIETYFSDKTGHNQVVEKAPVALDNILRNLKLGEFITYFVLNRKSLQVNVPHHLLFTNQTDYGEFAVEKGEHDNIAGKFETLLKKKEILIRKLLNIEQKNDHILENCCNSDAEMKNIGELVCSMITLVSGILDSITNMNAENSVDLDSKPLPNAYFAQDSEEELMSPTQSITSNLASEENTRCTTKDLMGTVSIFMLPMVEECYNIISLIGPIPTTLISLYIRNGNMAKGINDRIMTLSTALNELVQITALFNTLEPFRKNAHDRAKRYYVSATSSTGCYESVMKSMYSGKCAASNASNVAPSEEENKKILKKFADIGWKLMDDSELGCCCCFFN
# Assay: PBM E-score (8-mer binding enrichment) (E-score (-0.5 to 0.5)); higher = stronger / more preferred TF binding; most listed sequences are background and not binding sites
# Settings: protein concentration: 200 nM; construct: GST-full length
# Procedure, shortened: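 Yeast transcription factors, full-length or as DNA-binding domains, were expressed with a GST tag using PURExpress in vitro transcription/translation. At about 100-200 nM they were applied to universal all-10-mer Agilent arrays, double-stranded by primer extension on fresh or once-stripped slides. Fluorescent anti-GST detected bound protein, and masliner normalised the scans. E-scores for ungapped eight-base words, pooled with reverse complements, came from the Universal PBM Analysis Suite.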
row,Sequence,PBM E-score
1,ATCCTCAC,0.0712
2,ATTGAAGA,0.0645
3,ACAGTCCT,-0.167
4,AAACCTCG,-0.0726
5,ATCTAAAA,0.0739
6,CTGATAAC,0.0552
7,CGCACTCC,-0.148
8,AATTTTTC,0.31
9,ACCCGAAT,-0.0501
10,ACTGACTG,-0.121
11,TAATACTA,0.362
12,AACGGACA,-0.0682
13,AGGCGTAC,-0.103
14,ACGGAGCC,-0.209
15,CCTAATGC,-0.0998
16,ACAGTGCC,-0.0506
17,ACCTCGGC,0.0555
18,ACTTGTAG,0.0973
19,GACTTAGC,-0.116
20,TCCTCGAA,0.126
21,GAAAATTC,0.285
22,ATCCGCAC,0.181
23,ATCTTGCC,-0.0408
24,CCATAAAG,0.01
25,AGACGCAT,-0.025

row,Sequence,PBM E-score
1,GGATACAC,0.0433
2,CACAATCA,0.0822
3,CTAGTTTC,0.14
4,TCCCCGGA,0.0481
5,GAACCGCC,-0.0843
6,CAGGGGAA,-0.0526
7,CGTTCGCC,-0.0782
8,CGTAAGGC,-0.296
9,GTAACAAC,0.124
10,AAGTCTTA,-0.00514
11,GGCGTGCA,-0.204
12,GCTAACAA,0.00129
13,TACACACA,0.264
14,CTAACAAA,0.141
15,CGTCGATC,0.139
16,CTCATCGC,-0.035
17,ACCATAGA,-0.113
18,GTGCATGA,0.043
19,AACCAGTA,0.0849
20,AAACTGAT,-0.07
21,GCCTACCA,-0.159
22,CACACCTG,-0.191
23,ATAATGAG,0.0777
24,AGGCACGG,-0.174
25,CTCAGTTC,-0.0184

row,Sequence,PBM E-score
1,AGATTGAT,0.111
2,AAGACGTG,-0.0345
3,GCATAGTA,0.112
4,CATGTTGA,0.284
5,GCCGTCTA,-0.121
6,ATCTGTCG,-0.0536
7,CCATGCTA,-0.217
8,ATCCCTTA,0.0596
9,TCTTCAAA,-0.00132
10,GTCTGGAA,-0.065
11,GACGTTAC,0.0581
12,AAGGAGCG,-0.0398
13,AGGGTACC,-0.392
14,GCGACATA,-0.0158
15,AAGATGGC,0.0428
16,GATATCCC,-0.0193
17,AATTCACC,0.17
18,CAATGTGC,0.0548
19,GATATGCA,-0.0183
20,ACGGATCC,-0.027
21,ATGATCGA,0.0659
22,GTGCAACA,-0.0962
23,TACCCTAA,0.0534
24,AGGTTTAT,0.178
25,GTGTGATA,0.191

row,Sequence,PBM E-score
1,CCTGTGCG,-0.0705
2,CAACTTAA,0.194
3,CGATGTTA,0.159
4,AGTAGAAA,0.151
5,CACTTACC,0.127
6,GAAGTAAC,0.0976
7,TGCCATAA,-0.0526
8,CGGGGAAA,0.212
9,CTCAGGTC,-0.238
10,CATGACCC,-0.22
11,CACTTGCC,-0.111
12,GCCACCAC,-0.159
13,CTCAACCC,-0.00281
14,ATTTATGG,0.154
15,GGAACAGA,0.0538
16,CTGCCTAA,-0.0827
17,CATGTAGC,-0.126
18,TCTTTGCA,0.143
19,AAGCGTGC,-0.0736
20,GCATACGA,-0.00243
21,ATGACCCG,-0.24
22,CCGCAGAA,0.0489
23,CGTTTTCC,0.0707
24,AATACTCG,0.22
25,CTACAAGA,0.0357

row,Sequence,PBM E-score
1,CGTCTGTC,-0.171
2,CGCGCACG,-0.124
3,GACATGAA,0.0129
4,CGCTTTCA,0.0618
5,CTCTAACC,-0.125
6,CAGCTCCG,0.111
7,CTTCTAAC,-0.108
8,TAAGCCTA,0.103
9,AACTATAA,0.159
10,GGACTTCA,-0.164
11,CGTAGCAG,-0.0627
12,ACTTGGCA,-0.115
13,GTTCTCAA,0.082
14,AGCCTATG,-0.143
15,GATGGACC,-0.219
16,CGACGCAC,-0.00309
17,ACTTCGCG,-0.0504
18,ACTACAAG,0.0881
19,ACAGTCAC,-0.205
20,GGCATACA,0.0292
21,CCCAGAGC,-0.237
22,TAAGTTGA,0.13
23,CAGGCGTA,0.0702
24,ACTTCCCT,-0.0306
25,GAGTGCCC,-0.289

row,Sequence,PBM E-score
1,GGTTCACA,0.0343
2,ATCCGCGA,0.00363
3,AAGGTATA,0.111
4,TAAGCGCA,-0.0525
5,ACCAATGG,0.0589
6,CCCCAGAA,-0.138
7,CACCCACC,-0.0583
8,CGAACTTA,0.117
9,ATCGTCTA,-0.0993
10,CGACGTGC,-0.0395
11,CCTCGAAA,0.152
12,AAGGAGTA,-0.0654
13,AATTGTCG,-0.0516
14,TATGGCCA,0.0594
15,CTTAACTC,0.0941
16,AGTCGACA,0.136
17,GGCGATGA,-0.265
18,CGGCCAGC,-0.161
19,AGCCCGAG,-0.157
20,AGAGCTCT,-0.34
21,CCAAGCCG,-0.0703
22,ACCAGCAC,-0.0392
23,CGTGTGGC,-0.237
24,ACTACCAG,-0.0736
25,AGTCATGG,-0.0905

row,Sequence,PBM E-score
1,CTCACACC,-0.112
2,AGAGAATG,-0.0312
3,AATAAAGT,0.265
4,GCTATGCC,-0.27
5,CCCTGCTA,-0.279
6,TCTATCAA,0.19
7,ATCGCCAA,-0.136
8,GGGTCGCA,-0.13
9,ACCATGCG,-0.0411
10,ATGTCCTC,0.0728
11,CATTGGTA,0.165
12,GCTCTTGA,0.0083
13,CGCCTATC,-0.0112
14,ACGACTAG,0.133
15,CGCCCGCC,-0.161
16,CACGACGC,-0.187
17,CATGGCGC,-0.0707
18,ACGGGGCG,-0.154
19,CGCATCCG,-0.0664
20,ATCCATTA,0.0686
21,AGATTTGC,0.0651
22,ATACATCG,0.171
